{
  "source": "PubChem BioAssay AID504706",
  "about": "(National Center for Advancing Translational Sciences (NCATS), 2011)",
  "note": "Hit rate of the full screen: of about 320,000 compounds, about 200 (0.062%) were called active. This list was built around the results that the source calls inconclusive (neither active nor inactive); the mix of calls is not that of the screen. Calls come from the whole dose curve; as a rule, active = well fitted activation curve with a large enough effect; inconclusive = small, poorly fitted or top-dose-only effect; inactive = no such curve, though single readings can be large or run the other way. No potency is given beside an inconclusive call; the fits are too rough. Potency is the fitted concentration of half-maximal effect; tags give direction and shape of the fitted curve.",
  "data": [
    {"assay": "qHTS assay for re-activators of p53 using a Luc reporter; note: nearly all actives have a fitted effect of over 45% in size; for activity change, positive = activation: % of control where 0% means no effect", "settings": "H1299 p53-A138V BP100-luciferase reporter, luminescence, 24 h; series mostly up to 92.2 µM; activity change, positive = activation: at the top concentration", "how_it_was_run": "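H1299 (p53-null), stable ts p53-A138V + BP100-Luc; 1000 cells/well, Opti-MEM/10% FBS; cpd 4 pt, 1:5; 24 h, 37 deg C, 5% CO2; detection reagent 10 min RT; luminescence.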", "values": [
      {"smiles": "COc1ccc(S(=O)(=O)NC2CC2)cc1Br", "Potency": "inconclusive [activator, single point]"},
      {"smiles": "Cc1ccc(NC(=O)CSCc2cc(=O)n3cc(C)sc3n2)cc1", "Potency": "inconclusive [activator, single point]"},
      {"smiles": "CC(=O)Nc1ccc(-c2cc3ccccc3o2)cc1", "Potency": "inconclusive [activator, partial curve, poor fit]"},
      {"smiles": "O=C(COc1ccc(Cl)cc1)N1CCCC1", "Potency": "inconclusive [activator, partial curve, poor fit]"},
      {"smiles": "O=[N+]([O-])c1ccc(-c2cnc(SCc3ccccc3Cl)[nH]2)cc1", "Potency": "inconclusive [activator, partial curve, poor fit]"},
      {"smiles": "Cc1[nH]c(=O)[nH]c1C(=O)CCCCC(=O)OCC(=O)Nc1ccccn1", "Potency": "inconclusive [activator, single point]"},
      {"smiles": "C=CCOc1cccc(/C=C2\\C(=O)N(Cc3ccc(C)cc3)C(C)=C2C(=O)OC)c1", "activity change, positive = activation": "inactive: 0.735%"},
      {"smiles": "CC(=O)Nc1ccccc1Sc1ccccc1", "Potency": "inconclusive [activator, single point]"},
      {"smiles": "COc1ccc(N2CCCn3c2nc2c3c(=O)n(CCN3CCOCC3)c(=O)n2C)cc1", "Potency": "inconclusive [activator, partial curve, poor fit]"},
      {"smiles": "CCN(CC)c1ccc2c(c1)CCCN2", "Potency": "inconclusive [activator, partial curve, poor fit]"},
      {"smiles": "COc1c(Cl)cc(C(=O)NN)cc1Cl", "activity change, positive = activation": "inactive: 8.06%"},
      {"smiles": "O=C(c1noc2c1CCc1ccccc1-2)N1CCCc2ccccc21", "Potency": "inconclusive [activator, single point]"},
      {"smiles": "CC(=O)c1cccc(NC(=O)c2cc3ccccn3n2)c1", "Potency": "inconclusive [activator, partial curve, poor fit]"},
      {"smiles": "Cc1cccc(OCCCC(=O)NNC(=O)c2ccccn2)c1", "Potency": "inconclusive [activator, partial curve, poor fit]"},
      {"smiles": "O=C(Nc1nc2cc3c(cc2s1)OCCO3)C1CCCCC1", "Potency": "inconclusive [activator, partial curve, poor fit]"},
      {"smiles": "Cc1c(C(=O)OCCOC(C)C)[nH]c2c1C(=O)CC(c1ccco1)C2", "note": "(stereo not given)", "activity change, positive = activation": "inactive: 27.3%"},
      {"smiles": "COc1ccc(-c2csc(/C(C#N)=C\\c3ccc(OC)c([N+](=O)[O-])c3)n2)cc1", "activity change, positive = activation": "inactive: -4.01%"},
      {"smiles": "CSc1nc(N2CCN(Cc3ccc4c(c3)OCO4)CC2)c2ccccc2n1", "activity change, positive = activation": "inactive: 1.34%"},
      {"smiles": "O=C(CN1C(=O)c2ccccc2S1(=O)=O)c1ccccc1", "activity change, positive = activation": "inactive: -22.8%"},
      {"smiles": "Cc1ccc(C)c(NS(=O)(=O)c2cc(C(=O)Nc3cccc(N(C)S(C)(=O)=O)c3)ccc2C)c1", "Potency": "inconclusive [activator, single point]"},
      {"smiles": "O=C1CCN(Cc2ccccc2)C=C1c1ccc2ccccc2c1", "Potency": "inconclusive [activator, partial curve, poor fit]"},
      {"smiles": "Cc1cc(NC(=O)CSc2nc3ccsc3c(=O)n2Cc2ccccn2)n[nH]1", "activity change, positive = activation": "inactive: 11.3%"},
      {"smiles": "COCC(=O)N1CCC(Oc2ccc(C(=O)NCCc3ncccc3C)cc2)CC1", "activity change, positive = activation": "inactive: 21.8%"},
      {"smiles": "COc1ccc(-c2nc(SC)n(C(=O)c3ccco3)n2)cc1", "Potency": "inconclusive [activator, full curve, poor fit]"},
      {"smiles": "Cn1ncc(Cl)c1C(=O)Nc1nc2ccc(Cl)cc2s1", "Potency": "inconclusive [activator, full curve, poor fit]"},
      {"smiles": "CCCCCCC1CC(/C(C)=N\\NC(N)=O)OC1=O", "note": "(stereo not given)", "Potency": "inconclusive [activator, partial curve, poor fit]"},
      {"smiles": "Cn1nnnc1SCc1nnc(-c2ccc(Cl)cc2)o1", "Potency": "inconclusive [activator, partial curve, poor fit]"},
      {"smiles": "CCc1nc(SCC(=O)Nc2ccc(N(C)C)cc2)n[nH]1", "Potency": "inconclusive [activator, single point]"},
      {"smiles": "NC1(C#Cc2ccc3oc(=O)c(-n4cc(-c5ccsc5)nn4)cc3c2)CCCCC1", "Potency": "inconclusive [activator, single point]"},
      {"smiles": "Cc1ccc2occ(/C=N/O)c(=O)c2c1", "Potency": "inconclusive [activator, single point]"},
      {"smiles": "CCCN(CC(=O)Nc1ccccc1OC)C(=O)c1ccc2[nH]c3c(c2c1)CC(C)CC3", "note": "(stereo not given)", "activity change, positive = activation": "inactive: 8.56%"},
      {"smiles": "Cc1ccc(SCC(=O)N2CCc3ccccc32)cc1", "Potency": "inconclusive [activator, partial curve, poor fit]"},
      {"smiles": "COCCn1c(C(F)(F)F)ccc(NC(=O)c2ccccc2)c1=O", "Potency": "inconclusive [activator, full curve, poor fit]"},
      {"smiles": "CCN(CC)CCn1c(NCc2ccc(C)o2)nc2ccccc21", "activity change, positive = activation": "inactive: 1.52%"},
      {"smiles": "CN(CC(=O)Nc1ccc(Cl)cc1)C(=O)C1CCCC1", "Potency": "inconclusive [activator, full curve, poor fit]"},
      {"smiles": "O=C(NCc1ccncc1)c1ccc(Cl)c(S(=O)(=O)N2CCCCC2)c1", "activity change, positive = activation": "inactive: -3.12%"},
      {"smiles": "Cc1ccc(NC(=O)N2CCCCCC2)c(C)c1", "Potency": "inconclusive [activator, partial curve, poor fit]"},
      {"smiles": "COc1ccccc1OCC(=O)c1[nH]c(C)c(C(C)=O)c1C", "activity change, positive = activation": "inactive: -1.24%"},
      {"smiles": "Oc1sc(C=Nc2ccccc2)c2ccccc12", "Potency": "inconclusive [activator, full curve, poor fit]"},
      {"smiles": "Oc1cccc(/C=N/Nc2ncnc3c2ncn3Cc2ccccc2)c1", "Potency": "inconclusive [activator, partial curve, poor fit]"},
      {"smiles": "C=CCc1cc(C)ccc1OCCOCCN1CCN(C)CC1", "Potency": "inconclusive [activator, single point]"},
      {"smiles": "Cn1cccc1C(=O)OCC(=O)Nc1ccc2c(c1)OCCO2", "Potency": "inconclusive [activator, full curve, poor fit]"},
      {"smiles": "O=S1(=O)CC(O)C(N2CCCCC2)C1", "note": "(stereo not given)", "activity change, positive = activation": "inactive: 3.04%"},
      {"smiles": "CCCC[n+]1ccc(-c2nc3ccc([N+](=O)[O-])cc3[nH]2)cc1", "Potency": "inconclusive [activator, partial curve, poor fit]"},
      {"smiles": "CN1CCN(c2nc(-c3ccccc3)c3cc(Cl)ccc3n2)CC1", "activity change, positive = activation": "inactive: -0.628%"},
      {"smiles": "O=[N+]([O-])c1ccc(NC(=S)NCCc2ccccc2)cc1", "Potency": "inconclusive [activator, single point]"},
      {"smiles": "Cc1ccc(C(=O)NCCNC(=O)c2ccc(F)cc2)cn1", "activity change, positive = activation": "inactive: 0.611%"},
      {"smiles": "CCc1cc2cc(C(=O)Nc3ccc(F)cc3)sc2s1", "Potency": "inconclusive [activator, partial curve, poor fit]"},
      {"smiles": "COc1cc(/C=N/NC(=O)c2ccncc2)ccc1OCC(=O)Nc1ccccc1", "Potency": "inconclusive [activator, full curve, poor fit]"},
      {"smiles": "CC(C)c1ccc(NC(=S)NC2CC3C=CC2C3)cc1", "note": "(stereo not given)", "Potency": "inconclusive [activator, partial curve, poor fit]"},
      {"smiles": "CCOc1cc(C(=S)N2CCCC2)ccc1O", "Potency": "inconclusive [activator, partial curve, poor fit]"},
      {"smiles": "Cc1ccc(C2CC2C(=O)NNC(=S)Nc2cccc(Cl)c2)cc1", "note": "(stereo not given)", "activity change, positive = activation": "inactive: 12.1%"},
      {"smiles": "CCCc1cc(C(=O)Nc2cccc(C(C)=O)c2)no1", "Potency": "inconclusive [activator, partial curve, poor fit]"},
      {"smiles": "O=C(Cc1ccc(F)cc1)Nc1nnc(-c2ccc(F)cc2)o1", "Potency": "inconclusive [activator, partial curve, poor fit]"},
      {"smiles": "Cc1cccc(Nc2nc(-c3cccs3)cs2)n1", "Potency": "inconclusive [activator, partial curve, poor fit]"},
      {"smiles": "COc1ccccc1OCc1nnc(SCCN2CCOCC2)o1", "Potency": "inconclusive [activator, single point]"},
      {"smiles": "CCOC(=O)c1sc(NCc2ccco2)c(-c2nc3ccccc3s2)c1N", "Potency": "inconclusive [activator, partial curve, poor fit]"},
      {"smiles": "Cc1cccc(NC(=O)Cc2ccc(Br)cc2)n1", "Potency": "inconclusive [activator, partial curve, poor fit]"},
      {"smiles": "Cc1cc(NCc2ccccn2)n2ncc(-c3ccccc3)c2n1", "Potency": "inconclusive [activator, full curve, poor fit]"},
      {"smiles": "O=C(NCc1cccnc1)c1cn(-c2ccccc2)nc1-c1cccs1", "Potency": "inconclusive [activator, single point]"},
      {"smiles": "Brc1ccc(C2=NC(Cc3ccccc3)CO2)cc1", "note": "(stereo not given)", "Potency": "inconclusive [activator, full curve]"},
      {"smiles": "C(/C=C/c1ccccc1)=N/N1CCN(c2ccccc2)CC1", "activity change, positive = activation": "inactive: 8.14%"},
      {"smiles": "CCN(CC)S(=O)(=O)c1cc(NS(=O)(=O)c2cc(Cl)ccc2Cl)ccc1C", "activity change, positive = activation": "inactive: 6.28%"},
      {"smiles": "Cc1csc(NC(=O)c2cc(C)oc2C)n1", "Potency": "inconclusive [activator, partial curve, poor fit]"},
      {"smiles": "COc1cc2c(C(=O)O)c(C)n(CC(C)C)c2c2ccccc12", "activity change, positive = activation": "inactive: 24%"},
      {"smiles": "COc1ccc(-c2nnc(SCC(=O)Nc3ccccc3OC)o2)cc1", "Potency": "inconclusive [activator, partial curve, poor fit]"},
      {"smiles": "O=C(Nc1cccn(Cc2ccc(F)cc2)c1=O)NC1CCCCC1", "activity change, positive = activation": "inactive: 0.326%"},
      {"smiles": "Cc1ccc(/C=C2\\CCC(C3CCCC3)C2=O)cc1", "note": "(stereo not given)", "Potency": "inconclusive [activator, partial curve]"},
      {"smiles": "Cn1c(SCC(=O)c2ccccc2)nnc1-c1cnccn1", "Potency": "inconclusive [activator, partial curve, poor fit]"},
      {"smiles": "Cc1cc(C)cc(NC(=S)/N=C(\\N)Nc2nc(C)c3ccccc3n2)c1", "Potency": "inconclusive [activator, partial curve, poor fit]"}
    ]}
  ]
}
